Hit rate of the full screen: of about 290,000 compounds, about 2,100 (0.72%) were called active. Inconclusive results, whose numbers are uncertain, are shown with a selection of clear calls. Calls follow the shape of the dose curve; as a rule, active = well fitted inhibition curve with a large enough effect; inconclusive = small, poorly fitted or top-dose-only effect, or effect the other way; inactive = flat fitted curve, though single readings scatter. Potencies beside an inconclusive call are fits to weak or partial responses and may not hold up.
Molecular target: Fructose-bisphosphate aldolase (Giardia intestinalis (strain ATCC 50803 / WB clone C6)) (UniProt A8B2U2)
UniProt A8B2U2, sequence (A8B2U2 whole entry, looked up): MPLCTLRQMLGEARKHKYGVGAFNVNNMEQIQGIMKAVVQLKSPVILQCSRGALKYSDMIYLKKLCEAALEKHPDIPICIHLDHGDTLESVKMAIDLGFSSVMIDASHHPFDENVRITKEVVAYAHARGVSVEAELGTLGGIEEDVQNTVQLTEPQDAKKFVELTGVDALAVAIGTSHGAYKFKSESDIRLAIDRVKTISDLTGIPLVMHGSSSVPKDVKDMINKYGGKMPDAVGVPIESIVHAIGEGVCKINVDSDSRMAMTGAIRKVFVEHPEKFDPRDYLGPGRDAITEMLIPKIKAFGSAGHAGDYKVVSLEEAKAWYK
Experiment: qHTS Assay for Inhibitors of Fructose-1,6-bisphosphate Aldolase from Giardia Lamblia; also: nearly all actives have a fitted effect of over 55% in size
Settings: purified Giardia FBPA; activity, negative = inhibition: at 59.6 µM (top of the series) unless noted
In short: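 Giardia FBPA (40 nM reagent) was preincubated 10 min at RT with compound (up to 57.5 uM final), then substrate plus GAPDH/TPI/NAD/arsenate coupling system with diaphorase/resazurin was added; resorufin fluorescence (525/598 nm) was read after 20 min.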
% is scaled to controls: 0 for no effect and ±100 for the full control effect; potency is read from the fitted curve at half-maximal effect; tags tell the direction and shape of the fitted curve.

Row | SMILES | activity, negative = inhibition | Potency
1 | CCOC(=O)c1sc(NC(=O)c2cccs2)cc1C | inactive: -3.21% | 
2 | Fc1ccc(C2Nc3cccc4cccc(c34)N2)cc1 | inactive: -29.5% | 
3 | CC1(C)CSC(=NCCc2ccccc2)N1 | inactive: 16.3% | 
4 | O=C1NC(=O)N(c2ccccc2)C(=O)/C1=C/c1ccc([N+](=O)[O-])s1 |  | inconclusive: 17.7 µM [inhibitor, partial curve]
5 | Cc1cccc(N=C2C(=O)Nc3c(Cl)cccc32)c1 |  | inconclusive: 20 µM [inhibitor, partial curve]
6 | Cc1nc(SCc2ccc(O)c([N+](=O)[O-])c2)n[nH]1 |  | inconclusive: 19.9 µM [inhibitor, partial curve]
7 | Cc1[nH][nH]c(=O)c1C(c1ccc(-c2cccc(C(=O)O)c2)o1)c1c(C)[nH][nH]c1=O |  | active: 19.9 µM
8 | Cc1ccc(C2CC(=O)Oc3cc(C)c(Br)c(C)c32)cc1 (stereo not drawn) | inactive: 0.794% [at 89.2 µM] | 
9 | CSc1ccc(-c2ccco2)nn1 |  | inconclusive: 11.2 µM [inhibitor, partial curve]
10 | COC(=O)c1ccc(NC(=O)Nc2ccc(OC)cc2)cc1 | inactive: 0.933% | 
11 | O=C(O)c1cc(Cl)c(Cl)cc1C(=O)Nc1cccc2ncccc12 |  | inconclusive: 17.7 µM [inhibitor, single point]
12 | CC(C)C(=O)Nc1ccc(NC(=O)c2ccccn2)cn1 | inactive: -17.1% | 
13 | CCN(CC)C(=O)CSc1nc2ccccc2c(=O)n1OC | inactive: -1.83% | 
14 | CCCc1cc2c(n1Cc1ccc(OC)cc1)C(C)C1CN(C(=O)c3ccccc3)C(C)(C(=O)OC)C21 (stereo not drawn) |  | inconclusive: 15.8 µM [inhibitor, single point]
15 | Cc1ccc(N/N=C(\C#N)C(N)=S)cc1C |  | inconclusive: 14.1 µM [inhibitor, partial curve]
16 | CCOc1ccc(N2C(=O)CC(Sc3n[nH]c(-c4ccccc4)n3)C2=O)cc1 (stereo not drawn) | inactive: -23.9% | 
17 | Cc1ccccc1CN(C)CCc1ccccn1 |  | inconclusive: 15.8 µM [inhibitor, partial curve]
18 | COCc1cc(=O)[nH]c(/N=C(\N)Nc2c(F)cccc2F)n1 |  | inconclusive: 15.8 µM [inhibitor, single point]
19 | NC(N)=NS(=O)(=O)c1ccc(NC(=S)Nc2ccc(F)cc2)cc1 |  | inconclusive: 31.6 µM [inhibitor, single point]
20 | Cn1c(=O)c2c(ncn2CC(=O)N/N=C/C=C/c2ccco2)n(C)c1=O |  | inconclusive: 15.8 µM [inhibitor, single point]
21 | CCN(CC)c1ccc(N=Cc2ccc([N+](=O)[O-])o2)cc1 |  | inconclusive: 6.29 µM [inhibitor, partial curve]
22 | S=C(c1ccc(-c2ccccc2)o1)N1CCCCC1 |  | inconclusive: 15.8 µM [inhibitor, partial curve]
23 | COc1ccc2[nH]c(=O)c(CNc3ccc(C)c(C)c3)cc2c1 |  | inconclusive: 5 µM [inhibitor, full curve]
24 | O=C(C1CCCN(Cc2ccncc2)C1)N1CCc2ccccc2C1 (stereo not drawn) |  | inconclusive: 25.1 µM [inhibitor, single point]

Row | SMILES | activity, negative = inhibition | Potency
25 | Cc1nc(N2CCOCC2)sc1C(=O)NN |  | active: 12.6 µM
26 | Cc1ccc2nc(-c3ccc(NC(=O)CSc4nc(N)cc(=O)[nH]4)cc3)sc2c1 | inactive: 1.51% | 
27 | Cc1cc(C)n2c(nc3ccccc32)c1C(=O)NCc1ccccc1 | inactive: 10.6% | 
28 | O=C1NCCN(Cc2ccoc2)C1CC(=O)N(Cc1ccccc1)CC1CCC1 (stereo not drawn) | inactive: -3.63% | 
29 | C=Cn1ccnc1P(O)(=S)c1nc(C)c(CCOC(C)=O)s1 (stereo not drawn) |  | inconclusive: 5 µM [inhibitor, partial curve]
30 | CN(C)C1C(=O)C(C(N)=O)C(=O)C2(O)C(=O)C3C(=O)c4c(O)cccc4C(C)(O)C3C(O)C12 (stereo not drawn) |  | inconclusive: 14.1 µM [inhibitor, partial curve]
31 | CCOC(=O)C1CCN(C(=O)CCc2c(C)nc3cc(-c4ccc(OC)cc4OC)nn3c2C)CC1 | inactive: -7.92% | 
32 | COc1ccc2c(c1OC)C(=O)N1C2SC(C)(C)[C@H]1C(=O)NCCCOC(C)C (stereo partly drawn) |  | inconclusive: 17.8 µM [inhibitor, partial curve]
33 | CC(SCc1ccccc1)C(=O)N/N=C/c1ccc(OCC(=O)NCc2ccco2)cc1 (stereo not drawn) | inactive: 4.98% | 
34 | O=C1c2ccccc2C(=O)c2c1cccc2N1CCCC1 |  | inconclusive: 6.29 µM [inhibitor, full curve]
35 | CC1OC(Nc2cccc3ccccc23)C(O)C(O)C1O (stereo not drawn) |  | inconclusive: 7.92 µM [inhibitor, partial curve]
36 | COc1cnc(-c2ccccn2)nc1N(C)C |  | inconclusive: 11.2 µM [inhibitor, partial curve]
37 | Nc1c(C(=O)OCC2CCCO2)c2nc3ccccc3nc2n1-c1ccc2c(c1)OCCO2 (stereo not drawn) |  | inconclusive: 9.98 µM [inhibitor, partial curve]
38 | Oc1ccc(N=Cc2ccc(O)c(O)c2)cc1 |  | active: 1.58 µM
39 | Nc1ccc2oc(-c3ccccn3)nc2c1 |  | inconclusive: 19.9 µM [inhibitor, partial curve]
40 | CCOC(=O)CSc1nnc(CNc2ccc(Cl)cc2)n1-c1ccccc1 |  | inconclusive: 39.7 µM [inhibitor, partial curve]
41 | O=C1C(NS(=O)(=O)c2ccccc2)=C(N2CCN(c3ccc(F)cc3)CC2)C(=O)c2ccccc21 |  | inconclusive: 8.89 µM [inhibitor, partial curve]
42 | CC1CCN(S(=O)(=O)c2nnc(NC(=O)c3cccc([N+](=O)[O-])c3)s2)CC1 |  | active: 14.1 µM
43 | CCCn1c(CCNc2nc(-c3ccc(Cl)c([N+](=O)[O-])c3)cs2)nc2cc(Cl)c(Cl)cc21 |  | inconclusive: 15.8 µM [inhibitor, partial curve]
44 | O=C(O)c1ccc(NNC(=S)Nc2cc(C(F)(F)F)ccc2Cl)cc1 |  | inconclusive: 11.2 µM [inhibitor, partial curve]
45 | Cc1nn(-c2ccccn2)c2c1C(=O)C(Br)CC2 (stereo not drawn) |  | active: 5 µM
46 | CNC(=S)NNc1ccccc1[N+](=O)[O-] |  | inconclusive: 22.3 µM [inhibitor, partial curve]
47 | Cc1cccc2sc(NC(=O)CN(C)S(=O)(=O)c3ccc(Br)s3)nc12 | inactive: -3.44% | 
48 | CCOC(=O)CSCC(=O)Nc1ccc(S(=O)(=O)N2CCCCC2)cc1 | inactive: 2.27% | 

Source: PubChem BioAssay AID2451 (National Center for Advancing Translational Sciences (NCATS), 2010)
